Results: PubChem BioAssay AID485281 (National Center for Advancing Translational Sciences (NCATS), 2010)
The campaign covered roughly 350,000 compounds. About 260 (0.074%) were called active. Inconclusive results, whose numbers are uncertain, are shown with a selection of clear calls. The call rests on the fitted dose curve; in most records, active means well fitted inhibition curve with a large enough effect; inconclusive means small, poorly fitted or top-dose-only effect; inactive means no such curve, though single readings can be large or run the other way. A potency beside an inconclusive call is a rough fit, not a confirmed value.
Further: nearly all actives have a fitted effect of over 20% in size.
On the % scale 0 is the no-effect control and ±100 the full control effect; potency means the concentration at half of the fitted maximal effect; tags describe the fitted curve by direction and shape.

Each compound was assayed against Ferritin light chain (Equus caballus) (UniProt P02791) (assay: qHTS Assay for Identification of Novel General Anesthetics). Conditions: apoferritin/1-aminoanthracene competitive binding, fluorescence; activity change, negative = displacement: at 77.5 µM (top of the series).
UniProt P02791, sequence (P02791 whole entry, looked up): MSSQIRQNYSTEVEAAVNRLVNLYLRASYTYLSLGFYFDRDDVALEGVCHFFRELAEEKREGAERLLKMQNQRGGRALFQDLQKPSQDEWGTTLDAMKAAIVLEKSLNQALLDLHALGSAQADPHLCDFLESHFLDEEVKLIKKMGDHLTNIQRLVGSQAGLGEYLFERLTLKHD
Method in brief: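 Horse-spleen apoferritin (10 uM) in 50% saturated 1-aminoanthracene in PBS was incubated 10 min at room temperature with compound. Fluorescence (ex 380, em 535 nm) was normalized to free and bound 1-AMA, with concentration-response fitted by a four-parameter Hill equation.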
In the case of `CC(C)c1cc(C(=O)Nc2ccc3c(c2)OCO3)no1`, the “activity change, negative = displacement” value is reported as inactive: 6.98%.
For `Cc1cc(N2C(=O)C3CC=CCC3C2=O)cc(C)c1Br` (configuration not stated), the Potency was inconclusive: 14.1 µM [inhibitor, partial curve].
For `Cc1cc(C)cc(OCC(O)CN2CCC(CN3C(=O)c4cccc5cccc(c45)C3=O)CC2)c1` (configuration not stated), the Potency was inconclusive: 31.6 µM [inhibitor, partial curve].
`COc1ccc2[nH]c3c(N4CCC(O)(c5cccc(C(F)(F)F)c5)CC4)ncnc3c2c1` was tested, and the “activity change, negative = displacement” value was inactive: 8.53%.
In the case of `C/C(=N/NS(C)(=O)=O)c1ccc2ccccc2c1`, the Potency is reported as inconclusive: 28.2 µM [inhibitor, partial curve].
With `CN(C(=O)COc1ccc(Cl)cc1Br)C1CCCCC1` the Potency was inconclusive: 31.6 µM [inhibitor, partial curve].
`COc1ccc(N(C(=O)c2cccc([N+](=O)[O-])c2)S(=O)(=O)c2cccs2)cc1` was tested, and the Potency was inconclusive: 28.2 µM [inhibitor, partial curve].
`CC(N=c1ccccn1C(=O)Nc1ccc(Cl)cc1)c1ccco1` (configuration not stated) was tested, and the Potency was inconclusive: 15.8 µM [inhibitor, partial curve, poor fit].
In the case of `OC(CN1CCN(c2ncc(C(F)(F)F)cc2Cl)CC1)c1ccccc1` (configuration not stated), the “activity change, negative = displacement” value is reported as inactive: -12.5%.
In the case of `CCCN(CC1CC1)C(=S)Nc1ccccc1F`, the Potency is reported as inconclusive: 31.6 µM [inhibitor, single point].
With `CC(C(=O)NC1CCCC1)N(Cc1ccco1)C(=O)c1snc(C(=O)NC2CCCC2)c1N` (configuration not stated) the Potency was inconclusive: 31.6 µM [inhibitor, partial curve].
For `Cc1cc(C)cc(NC(=O)c2cc(S(=O)(=O)NCCC3=CCCCC3)ccc2F)c1`, the Potency was inconclusive: 5.62 µM [inhibitor, full curve].
With `O=C(COC(=O)CSc1ccc([N+](=O)[O-])cc1)NCCCc1ccccc1` the Potency was inconclusive: 25.1 µM [inhibitor, partial curve].
In the case of `O=C(COC(=O)/C=C/c1cccs1)Nc1ccccc1Cl`, the Potency is reported as inconclusive: 20 µM [inhibitor, partial curve].
For `CSc1c(CC(=O)Nc2ccccc2C(F)(F)F)n(Cc2ccccc2)c2ccccc12`, the “activity change, negative = displacement” value was inactive: -15.6%.
With `Cn1ccnc1SCC(=O)NC12CC3CC(CC(C3)C1)C2` the Potency was inconclusive: 15.8 µM [inhibitor, partial curve].
In the case of `CCCOC(=O)Nc1cccc(C(C)=O)c1`, the “activity change, negative = displacement” value is reported as inactive: -2.93%.
`O=[N+]([O-])c1ccc(/C=N/n2c(CO)nc3ccccc32)s1` was tested, and the “activity change, negative = displacement” value was inactive: 2.66%.
With `CCOC(=O)C(Oc1ccc2c(-c3ccc(OC)cc3)cc(=O)oc2c1C)c1ccccc1` (configuration not stated) the Potency was inconclusive: 8.91 µM [inhibitor, partial curve].
In the case of `CC1=CCC2C(=O)N(c3ccc(C(=O)N4CCCCCC4)cc3)C(=O)C2C1` (configuration not stated), the Potency is reported as inconclusive: 15.8 µM [inhibitor, partial curve].
In the case of `CC1(C)C2CCC1(C)C(OC(=O)c1ccccc1C(=O)O)C2` (configuration not stated), the “activity change, negative = displacement” value is reported as inactive: -14%.
In the case of `CCOC(=O)c1c(NC(=O)c2ccc(S(=O)(=O)N3CCC(C)CC3)cc2)sc2c1CCN(C)C2`, the “activity change, negative = displacement” value is reported as inactive: 46.1%.
`O=C(COC(=O)Cn1cnc2ccccc2c1=O)Nc1ccc2c(c1)OCO2` was tested, and the Potency was inconclusive: 17.8 µM [inhibitor, partial curve].
`CCCCN(CCCC)S(=O)(=O)c1ccc(NC(=O)c2cccs2)cc1` was tested, and the Potency was inconclusive: 7.08 µM [inhibitor, partial curve].
For `CCOC(=O)c1sc2ncn(CC(=O)Nc3ccc(N(C)C)cc3)c(=O)c2c1C`, the “activity change, negative = displacement” value was inactive: -4.3%.
In the case of `COc1ccc(NC(=O)COc2ccccc2)cc1Cl`, the Potency is reported as inconclusive: 35.5 µM [inhibitor, partial curve].
For `COC(=O)c1nc2n(n1)C(c1cccc(Cl)c1)C(C(=O)Nc1ccccc1OC)=C(C)N2` (configuration not stated), the Potency was inconclusive: 12.6 µM [inhibitor, full curve].
With `COc1ccc(N2CCN(S(=O)(=O)c3ccc4oc(=O)c5ncn(C)c5c4c3)CC2)cc1` the Potency was inconclusive: 31.6 µM [inhibitor, single point].
For `Cc1ccc(-c2nc(C)c(CCNC(=O)c3ccco3)s2)cc1`, the Potency was inconclusive: 20 µM [inhibitor, partial curve].
With `CCc1ccc(CNC(=O)CN2C(=O)c3cccnc3Oc3ccc(Cl)cc32)cc1` the Potency was inconclusive: 50.1 µM [inhibitor, single point].
`CC(C)C(=O)NC(=O)C1CCCN1C(=O)/C=C/c1ccccc1` (configuration not stated) was tested, and the activity change, negative = displacement was inactive: -6.49% [at 15.3 µM].
With `Cc1nn(Cc2cccc(C(=O)N3N=C(C(F)F)CC3(O)C(F)F)c2)c(C)c1[N+](=O)[O-]` (configuration not stated) the Potency was inconclusive: 35.5 µM [inhibitor, partial curve].
For `O=C(CSC1=Nc2ccccc2C2=NC(CC(=O)NC3CCCCC3)C(=O)N12)Nc1ccc(F)cc1` (configuration not stated), the “activity change, negative = displacement” value was inactive: -15.8%.
`COCc1[nH][nH]c(=O)c1C=Nc1ccc(Oc2ccccc2)cc1` was tested, and the Potency was inconclusive: 12.6 µM [inhibitor, partial curve].
For `O=C(Nc1cccc(-c2cnc3ccccc3n2)c1)c1cccc(NC(=O)c2ccco2)c1`, the Potency was inconclusive: 6.31 µM [inhibitor, full curve].
With `O=C(Nc1ccc(S(=O)(=O)N2CCCCCC2)cc1)c1ccco1` the Potency was inconclusive: 17.8 µM [inhibitor, single point].
For `O=C(Cc1cccc2ccccc12)Nc1cc(Cl)ccc1C(=O)O`, the “activity change, negative = displacement” value was inactive: -10.6%.
With `CSc1nc(C)cc(OCC(=O)n2nc(C)cc2C)n1` the “activity change, negative = displacement” value was inactive: -9.72%.
For `CC1CCCC(NC(=O)CCNC(=O)c2ccc([N+](=O)[O-])cc2)C1C` (configuration not stated), the Potency was inconclusive: 20 µM [inhibitor, partial curve].
For `CCCOC(=O)C1=C(C)N(C)C(=O)NC1c1cc2c(cc1Br)OCO2` (configuration not stated), the Potency was inconclusive: 28.2 µM [inhibitor, single point].
With `O=c1nccc(SCc2ccc(Cl)cc2Cl)[nH]1` the Potency was inconclusive: 50.1 µM [inhibitor, single point].
With `COc1cccc(C(c2sc3nc(-c4ccco4)nn3c2O)N2CCC(O)CC2)c1` (configuration not stated) the Potency was inconclusive: 50.1 µM [inhibitor, partial curve, poor fit].
With `CCOc1ccc(CC(=O)Nc2ccc(-c3ccc4nnc(C)n4n3)cc2)cc1` the Potency was inconclusive: 35.5 µM [inhibitor, single point].
`O=S(=O)(NCCc1nnc2ccc(SCc3ccc(Cl)cc3Cl)nn12)c1ccccc1` was tested, and the Potency was active: 17.8 µM.
For `Cc1ccc(C)c(S(=O)(=O)N2CCN(Cc3ccc(O)c4ncccc34)CC2)c1`, the “activity change, negative = displacement” value was inactive: -6.71%.
For `C=CCSc1nnc(CCCCCN2C(=O)c3cccc4cccc(c34)C2=O)o1`, the “activity change, negative = displacement” value was inactive: -12.7%.
In the case of `O=C(COc1ccc(S(=O)(=O)NC2CCCC2)cc1)NCC1CCCO1` (configuration not stated), the “activity change, negative = displacement” value is reported as inactive: -3.61%.
`Cc1nnc(-c2ccccc2)c(=O)n1/N=C/c1c(O)ccc2ccccc12` was tested, and the Potency was inconclusive: 35.5 µM [inhibitor, single point].
`CCOC(=O)Cn1c(CN(Cc2ccccc2)Cc2ccccc2)nc2c1c(=O)[nH]c(=O)n2C` was tested, and the Potency was inconclusive: 35.5 µM [inhibitor, partial curve].
With `CC1(C)CC2CN(C(=O)Cc3ccccc3)C(C)(C2)C1` (configuration not stated) the Potency was inconclusive: 17.8 µM [inhibitor, partial curve].
In the case of `COC(=O)C(Cc1cnc(Cl)s1)(C(=O)OC)c1ccc(C(F)(F)F)cc1[N+](=O)[O-]`, the Potency is reported as inconclusive: 50.1 µM [inhibitor, single point].
For `COc1ccc(NC(=O)Cn2nnc3sc4c(c3c2=O)CCC(C)C4)c(OC)c1` (configuration not stated), the Potency was inconclusive: 5.01 µM [inhibitor, partial curve].
In the case of `O=C(CNC(=O)c1ccccc1)N/N=C/c1cccs1`, the Potency is reported as inconclusive: 25.1 µM [inhibitor, partial curve].
With `Cc1ccc(C(C(=O)NCc2ccco2)N(C(=O)Cn2nnc3ccccc32)c2ccccc2)o1` (configuration not stated) the Potency was inconclusive: 31.6 µM [inhibitor, partial curve, poor fit].
`Cc1nnc(NCc2cccc(Cl)c2)c2ccccc12` was tested, and the Potency was inconclusive: 50.1 µM [inhibitor, single point].
With `O=c1[nH]n(CC2COC3(CCCCC3)O2)c(=O)c2ccccc12` (configuration not stated) the Potency was inconclusive: 25.1 µM [inhibitor, partial curve].
With `Cc1ccc(CNC(=O)c2ccc(OCC(C)C)cc2)n1C` the Potency was inconclusive: 28.2 µM [inhibitor, single point].
With `Cc1ccc(-c2nnc(Nc3ccc(O)cc3)c3ccccc23)cc1S(=O)(=O)N1CCN(C)CC1` the “activity change, negative = displacement” value was inactive: -14.4%.
With `S=C(S)OC1CC2CC1C1CCCC21` (configuration not stated) the Potency was inconclusive: 8.91 µM [inhibitor, partial curve].
In the case of `COc1cccc(C(=O)COc2cccc(NC(=O)c3ccco3)c2)c1`, the Potency is reported as inconclusive: 28.2 µM [inhibitor, partial curve].
`Cc1ccc(CNC(=O)C2(CC(C)C)C=CCN2C(=O)c2ccccc2)o1` (configuration not stated) was tested, and the Potency was inconclusive: 35.5 µM [inhibitor, single point].
`Cc1cc(C(=O)CSc2nn3c(=O)c(C(C)(C)C)nnc3s2)c(C)n1-c1ccc(F)cc1` was tested, and the Potency was inconclusive: 11.2 µM [inhibitor, partial curve].
`N#Cc1c(SCc2ccc(Cl)cc2)sc(C(=O)c2ccccc2)c1N` was tested, and the Potency was inconclusive: 6.31 µM [inhibitor, full curve, poor fit].
In the case of `Cc1ccc(NC(=O)CNC(=O)c2cccs2)cc1S(=O)(=O)Nc1ccc(Cl)cc1`, the Potency is reported as inconclusive: 7.94 µM [inhibitor, partial curve].
In the case of `CCN(CC)CCOC(=O)c1ccc(NC(=O)Cn2ncc3c([nH]c4ccc(C)cc43)c2=O)cc1`, the “activity change, negative = displacement” value is reported as inactive: -1.35%.
`Nc1nc2ccc(Oc3ccccc3)cc2s1` was tested, and the Potency was inconclusive: 28.2 µM [inhibitor, partial curve].
With `CC1CCCC(C)N1C(=O)Cn1c(=O)sc2ccccc21` (configuration not stated) the Potency was inconclusive: 8.91 µM [inhibitor, partial curve].
